Data taken from the supplement of paper PMC12632987.
In all, about 2,300 sequences were measured (“median log2 fold change of GCK-ALFA target abundance (FLAG IP / Myc IP barcode read proportion)”: median about 0.095, lowest 2% from about -0.47 on). The list shows a part of the results.

B1: LC3A_28_683 (protein)
chain: SETDESIEKALKKAKEALEKGKPEVIEIKVSGDTTEEELEKILEALEEIAEIANKVPGSAIIIDIDADLPQEFRDKLIDKAEELEEKYPNVTIIFALEER
B2: LC3A_3_1746 (protein)
chain: MEETLERIRERLKELGFSEEVIEKALEVAKALLERGFEEAVKTLLEELEELKDVPDEILLAMLEDILDYVKSNDINEEEAIEKIKEEARIARNEAEIEEL
B3: LC3A_36_1341 (protein)
chain: MKVIVATAEEEDIKKAAEQANKEGADLEVVFTPETTVEEIRKALELVLELSKNISNIIIDLDAETEEELLKKLKVASEVADKIEKENGKNVIIAYDVVEP
B4: LC3A_free_46_2402 (protein)
chain: YRAEILIDALAETREKAEALAEDLEKAAREIAEKHGARVEIKVKIEELPDGSYFVEIEIVLEAETREALEAAVNELIDRFEEIAKKYNAAMIISYEISEL
B5: LC3A_28_801 (protein)
chain: SETRESAERAREEARELIARGEEVVVEIEISADATQEEIDYVNETIREMARLAKEAGIPRLYVVVDSPDNQEIITAVSETEDRMRAEGLPVSVIIAIDEP
B6: LC3A_45_1944 (protein)
chain: MAEATVSVLVPREKFEEALAVLKEAAAEIAAERGLEVEIDEAAVEAAREEAEREGEGLLEVTVKSENLQDALDAAVEIADRLEEELGPEVAVAIAIEEIP
B7: LC3A_3_1652 (protein)
chain: MEEEKKKLLEYLKKKGKSEEVLKAVEEALNALIEKGYYEAAKTFIELLKELEDLSDELLLELAEEVLELVETSDLSPEELKKKIEEIAKTIKNEGEIIEL
B8: LC3A_28_663 (protein)
chain: SAIDARIAAALAEAEAGRAAGEPVVVTLEVPGDADEADIERIIAALERIAEILAPIKGSAIIVDIDGDLDPEHEQRLIDRAEELEKRYPNVTVIIARDER
B9: LC3A_3_1594 (protein)
chain: MAALVEEQLARLRAAGASPAVLAAARRVLEALAARGYERAMETLTEELLRLRDAPTELLVAMLEELLAIVETEDLSEEEVIEEIEELARLARNEAEIEEL
B10: LC3A_3_1362 (protein)
chain: MEELIEETLAFLREQGKSEETLEAVRETLEALRERGYERAAETFVALLRELADLPDELLLAFAEDVLRAVTEEDLSEEELIAYIESEAAVARSEAEIEEL
B11: LC3A_free_8_2517 (protein)
chain: MNQEFAARATEILDELEEEVVAYLKSKGASELDILEAELLIGAAIADVISLADKSPEEQLAAIEEDLAELVEELAEHREEVAAMAEAALARIRAAQAELA
B12: LC3A_free_39_2198 (protein)
chain: SEEERQKYIEELLKLAAEEGEEAEKLARELIELMGNKLEYVKELLELVKKAKEEGVDVLELLKEALELAKKLKEEGKSVEEIAKAVLELIQDRINLIPID
B13: LC3A_free_0_2112 (protein)
chain: MEKYRLEIVIKIKGKTEELAEKAAEEIVKRAKELAAKYGAEVEVKITDIDGTGEKVVEIVVSGLTLDQAVALERELIAEAEEIAKKYGVEVDIYTGIERL
B14: LC3A_147_508 (protein)
chain: YKVVITIDLIVKNKVEEIKKKFEELVKELKEKGYEVELEIKVEKIDENTYYVNVTITIKTETKEEAEEAKNLALDLIDKIEEELKDDILGSLISSEIIEE
B15: LC3A_127_201 (protein)
chain: EKRELLLKAEELAEKALKALQEIPKEGEKAIKKAIKLAEELLELLEKIPELKEAAEDAKQLLKQLKELPKLSKAEQEEAIEHMEMIAEGILIDIESELLK
B16: LC3A_free_46_2342 (protein)
chain: MTLEIDVDILADTKEKAEKAVEELVKLFKELAKEYNAELEIEVEIEKLEDGSYYAHIRAVFKGVTKEQAQEIEDKVVDKVEEISEKYGVAAIVSFEIIET
B17: LC3A_28_797 (protein)
chain: SAVDEELARARAEARAALARGEEAVLTVRVTGDTTVADAERIAAALREIVEEAASLPRLSIVIDLSGGVSQEVIDILADAGEELEERYPNVNVILALDEE
B18: LC3A_28_920 (protein)
chain: MTAEEIIAEIRKIAKEAIEKGEDAFIEVEIDSSHTAEEAAAIMDEVEREVAKLSAAGLKVDIVVDLDDVSQEVLDTVADRADEIEEKYPNVNVVIALDEE
B19: LC3A_28_1211 (protein)
chain: SAADAAIAAFRAQVDAAIAAGEPQTIVVRIGGSITVEDAKRIMAAVREEVARAAGLPGLSIVIDLGGGVSQEVIDVVGEEAERIEKEFPNVTVIIALEER
B20: LC3A_free_46_2395 (protein)
chain: ITGYIDILLEGATEEQAKEIAKKAEEKIKEEAAKKGVNVEIKVKIEKDEEGNIFINIEVKMDTDDEQVALDILSETEDEALKLAKELGIKASSIISVEKD
B21: LC3A_45_1930 (protein)
chain: MYKATVDLLVPKELADEVYEKIKEELEKLEAEYGDDLEVDYETLEASYEASKDEEEVYLEVNIYAPNKQLALDAADKLVDSIEEFTNGKVASMISIEELP
B22: LC3A_free_8_2532 (protein)
chain: STQDFVNEAVELLDELEKKVTEKAKELGISELDILDLELLIGSAIIDVIEMQDEPKEKILKEVEEDLKEIEKRAKEISEELAEEVKKLSEEILKKLKEKL
B23: LC3A_28_1151 (protein)
chain: SAMVEKAKAQIEKDAEKDKNEEEIYLNVTFEKGMTLEEAKEVMDYVEEVVEKNKDKKKIYIVVDFTEPLSQEVIDYILEKSEEIEEKFPNVSVIIALHED
B24: LC3A_3_1710 (protein)
chain: GEELLKEAEKILKEQGLSEETKEAVLAALKALLEKGYEEAAKTLIELLKEAKDLSDETILDFALDVKEYVETEDVSEEEAIEKIKEEYEIAKNDEEIEEL
B25: LC3A_3_1584 (protein)
chain: LEEEEAALLEELAAAGHSPETLAAVRELLEALRERGFEEAARHVIELFRENVDLPDDLLLDIALELLRALEEEDLSEEELIELAEELFRTARNEKEIEEA
B26: LC3A_28_1192 (protein)
chain: SPADETIAAIKAQAAKALEEGEGAVIEVNISSELTKEDVERIAATIKAEAEKLKDLPSVSIVINVDAGVPQENIDLLAETGDEIEAKYPNITVIIALDED
B27: LC3A_free_46_2357 (protein)
chain: YKAEIDIDLLHDDEEVLKAAVEEIEKKAKEIAKKYGLKIKIEKSFEKLPDGSYYAEIKIILEGENKEDVEKAVNELINEIEKISEKYDVASIISYEIEES
B28: LC3A_3_1449 (protein)
chain: GEELIEEAKKILKEQGRSEETIKAAEELLKALKEKGYEKAMETFVEELKKLKDVSSEIILAMFEDIKYEVENKDLSEEEVVEIIKSEAAAAISENEIIEL
B29: LC3A_102_159 (protein)
chain: DIEKKIEEIIKKAVKKMEEFLKKDKSLTEEEKEEILKITREALEALAEILLSEAQHGFVDLVAEDKLLEAKEKLKEYPKEVQEEAEKILKEAEEEIKKLL

The binders below were run against MAP1LC3A, Q9H492 (assay: median log2 fold change of GCK-ALFA target abundance (FLAG IP / Myc IP barcode read proportion) (log2 ratio); each designed protein is fused to an ALFA-tag nanobody in HEK293 cells to bring the named protein to FLAG-tagged glucokinase (GCK); Myc marks an untargeted standard; higher = target protein stabilised (more abundant)). Details: target protein: 3xFLAG-MCP-GCK-ALFA reporter; HEK293 landing pad (RPLP).
How it was run: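 An ALFA-nanobody-fused binder library was recombined into HEK293 landing-pad cells and induced with 2 μg mL^−1 doxycycline. Cells were transfected with a plasmid expressing a FLAG-tagged target and a Myc-tagged standard. After 48 h, lysates underwent anti-FLAG and anti-Myc immunoprecipitation, and circular RNA barcodes were reverse transcribed, amplified and sequenced. Target abundance is the per-binder median log2 ratio of FLAG to Myc barcode read proportions. Barcodes needed ≥10^−7 proportion in both replicates, binders ≥3 barcodes per replicate, and a 10^−6 pseudocount was added; the two replicates were pooled.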

Row | Binder | median log2 fold change
1 | B1 | -0.521
2 | B2 | 0.198
3 | B3 | 0.0374
4 | B4 | -0.232
5 | B5 | 0.207
6 | B6 | -0.198
7 | B7 | 0.283
8 | B8 | 0.0762
9 | B9 | -0.0195
10 | B10 | 0.0647
11 | B11 | -0.0612
12 | B12 | 0.377
13 | B13 | 0.175
14 | B14 | 0.121
15 | B15 | -0.109
16 | B16 | 0.16
17 | B17 | 0.0691
18 | B18 | -0.138
19 | B19 | 0.235
20 | B20 | -0.0758
21 | B21 | -0.221
22 | B22 | -0.056
23 | B23 | -0.28
24 | B24 | 0.213
25 | B25 | 0.141
26 | B26 | 0.139
27 | B27 | 0.228
28 | B28 | 0.0471
29 | B29 | 0.104
